This is an account of results in PMC6901573 (2019).

As a reminder, the Kd is the free concentration of one partner at which half of the binding sites on the other are occupied at equilibrium, for simple one-to-one binding. A higher Kd goes with lower affinity.

Some targets named below: β-semi-methemoglobin (Homo sapiens, UniProt P69905); α-semi-methemoglobin (Homo sapiens, UniProt P69905); methemoglobin (Homo sapiens, UniProt P69905).
Common to all, as to assay: SPR
For orientation: In SPR one partner is held on a chip, and binding of the other changes the refractive index at the surface.

Chain of methemoglobin (P69905 2-142, chain 1 of 2): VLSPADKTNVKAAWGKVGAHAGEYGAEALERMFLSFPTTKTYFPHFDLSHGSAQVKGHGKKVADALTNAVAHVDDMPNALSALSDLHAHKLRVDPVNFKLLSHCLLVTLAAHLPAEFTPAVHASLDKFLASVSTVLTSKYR
Chain of methemoglobin (chain, as listed by the source, chain 2 of 2): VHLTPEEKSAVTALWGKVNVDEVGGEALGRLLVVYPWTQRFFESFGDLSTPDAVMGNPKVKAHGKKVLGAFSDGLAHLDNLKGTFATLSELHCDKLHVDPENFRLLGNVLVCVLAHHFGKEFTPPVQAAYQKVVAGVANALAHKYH
Chain of β-semi-methemoglobin (P69905 2-142, chain 1 of 2): as the sequence (P69905 2-142, chain 1 of 2) above
Chain of β-semi-methemoglobin (chain, as listed by the source, chain 2 of 2): as the sequence (chain, as listed by the source, chain 2 of 2) above
Chain of α-semi-methemoglobin (P69905 2-142, chain 1 of 2): as the sequence (P69905 2-142, chain 1 of 2) above
Chain of α-semi-methemoglobin (chain, as listed by the source, chain 2 of 2): as the sequence (chain, as listed by the source, chain 2 of 2) above

B1: IsdB (protein)
chain: not shown
modifications: met heme in beta only
B1 gave a Kd in the assay with β-semi-methemoglobin of 91 nM.

B2: IsdB (protein)
chain: not shown
modifications: met heme in alpha only
Regarding B2, the dissociation constant (Kd) with α-semi-methemoglobin came out at 108 nM.

B3: IsdB (protein)
chain: not shown
modifications: met heme
In the assay with methemoglobin, B3 gave a Kd of 70 nM.
